From PubChem BioAssay AID1508624 (National Center for Advancing Translational Sciences (NCATS), 2021)
Out of some 48,000 compounds screened, about 120 (0.25%) were called active. Another 4% or so got no clear call; they are omitted. Calls come from the whole dose curve; as a rule, active = well fitted activation curve with a large enough effect; inconclusive = small, poorly fitted or top-dose-only effect, or another doubt; inactive = no such curve, though single readings can be large or run the other way. Some of the results follow.

Assay: Primary qHTS for Identification of Small Molecule Activators of Huntingtin-Antisense Promoter Activity; note: nearly all actives have a fitted effect of over 55% in size
Details: HEK293 HTT-AS promoter firefly luciferase reporter (activity 0% = vehicle and -100% = no light), 24 h; series mostly up to 57.5 µM; activity change, positive = activation: at the top concentration
Summary of the method: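 Luminescence was read after Dual-Glo reagent and a 10 min room-temperature incubation. Values were normalized to vehicle (0% activity) and zero RLU (-100% activity). Reporter HEK293 cells had been exposed to compounds (up to 57.5 uM final) for 24 h.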

Row | SMILES | activity change, positive = activation
1 | Cc1cccc(Cn2c(=O)n(Cc3ccccc3)c(=O)c3sc4ccccc4c32)c1 | inactive: -2.13%
2 | CCCCn1c(CNC(=O)C23CC4CC(CC(C4)C2)C3)nnc1SCC(=O)Nc1ccc(F)cc1 | inactive: -34%
3 | Cc1cccc(NC(=O)Nc2nnc(N3CCCC3)s2)c1 | inactive: 0.656%
4 | Cc1cc(C(=O)NCc2ccccc2)c2c(C)nn(-c3cccc(Cl)c3C)c2n1 | inactive: -15.9%
5 | Cc1ccc(NC(=O)C2CCCN2S(=O)(=O)c2ccc3nc(-c4ccccc4)[nH]c3c2)cc1C (stereo unspecified) | inactive: -26%
6 | CC(C)C(=O)Nc1cccc(C(=O)Nc2nnc(C(F)(F)F)s2)c1 | inactive: 15.1%
7 | CCOc1ccccc1NC(=O)CCc1c(C)nc2cc(-c3ccccc3)nn2c1C | inactive: -65.8%
8 | Cc1ccc(NC(=O)CN(c2ccc(C)cc2)S(=O)(=O)c2cccc3nonc23)cc1 | inactive: -14%
9 | CCOCCCn1c(=N)c(C(=O)NCc2ccccc2)cc2c(=O)n3ccccc3nc21 | inactive: 0.21%
10 | COc1cccc(NC(=O)Cn2c(=O)n(CCc3cccc(C)c3)c(=O)c3ccccc32)c1 | inactive: -7.63%
11 | Cc1cccc(NC(=O)c2c(NC(=O)c3ccco3)sc3c2CCC(C)C3)c1 (stereo unspecified) | inactive: -8.63%
12 | COc1cccc(CNC(=O)c2ccc3c(c2)nc2n3CCC(C)C2)c1 (stereo unspecified) | inactive: 29.5%
13 | COc1ccc(-n2nc(-c3ccc(C)cc3)c3cnc4cc(F)c(F)cc4c32)cc1 | inactive: -9.72%
14 | Cc1ccc(NC(=O)Cn2nc(-c3ccccc3)nc(Cc3ccccc3)c2=O)cc1 | inactive: -3.09%
15 | CCCN(CCC)C(=O)c1nn(C)c2c1CSc1ccccc1-2 | inactive: 2.44%
16 | O=C(NCc1ccccc1Cl)c1ccc(-n2cnc3cccnc32)cc1 | inactive: -9.1%
17 | CCOc1ccccc1NC(=O)Cn1nc(N2CCN(c3ccccc3)CC2)ccc1=O | inactive: -22.7%
18 | Cc1ccc(CNC(=O)CSCc2nc(-c3cccc(C)c3)oc2C)cc1 | inactive: -12.5%
19 | Cc1cn2c(=O)c(S(=O)(=O)NCc3ccc(F)cc3)c(C)nc2s1 | inactive: -3.2%
20 | O=C(CCC1N=C2c3ccccc3N=C(SCC(=O)NCCc3ccccc3)N2C1=O)NCc1ccc(F)cc1 (stereo unspecified) | inactive: -0.607%
21 | CCC(NC(=O)Nc1cccc(C)c1)c1c(-n2cccc2)sc2c1CCN(C)C2 (stereo unspecified) | inactive: -5.58%
22 | CCCN(CCC)C(=O)Cn1c(=O)n(-c2ccc(Cl)c(Cl)c2)c(=O)c2c(C)c(C(=O)N(C)C)sc21 | inactive: -13.6%
23 | CCOc1ccc(OCC)c(NC(=O)C2CCCN(S(=O)(=O)c3ccc(C)cc3)C2)c1 (stereo unspecified) | inactive: -14.4%
24 | CCOc1ccc(-c2nnc(SCC(=O)N(CC)c3cccc(C)c3)o2)cc1 | inactive: -28%

Row | SMILES | activity change, positive = activation
25 | O=C(Cn1c(=O)n(-c2ccccc2Cl)c(=O)c2sc3ccccc3c21)NC1CCCC1 | inactive: -14.1%
26 | COc1ccccc1CNC(=O)CSc1cc(C)[nH]c(=O)n1 | inactive: -9.41%
27 | O=C(O)CCC(=O)c1ccc(-c2ccccc2)cc1 | inactive: 17.3%
28 | COc1ccc(-c2c(C)nn3c(N4CCN(c5cc(Cl)ccc5C)CC4)cc(C)nc23)cc1OC | inactive: -2.21%
29 | Cc1ccc(S(=O)(=O)C(CNS(=O)(=O)c2ccc(F)c(C)c2)c2cccs2)cc1 (stereo unspecified) | inactive: -31.2%
30 | O=C(NCCS(=O)(=O)N1CCN(c2ccccc2F)CC1)C1CC(=O)N(c2ccc(F)cc2)C1 (stereo unspecified) | inactive: -9.74%
31 | CCc1ccccc1N(CC)C(=O)Cn1nc(Cc2ccncc2)c2ccccc2c1=O | inactive: -35.8%
32 | Cc1ccc(-n2cnc3cc(C(=O)NCCC4=CCCCC4)ccc32)cc1Cl | inactive: -9.78%
33 | Cc1ccc(OCC(=O)Nc2cccc3ccc(C)nc23)c(C)c1 | inactive: 13.9%
34 | Cc1cccc(NC(=O)COc2ccc3oc4c(c3c2)CCCC4)c1 | inactive: -20.5%
35 | COc1ccc(CNC(=O)C(=O)NCC(c2cccs2)S(=O)(=O)c2cccs2)cc1 (stereo unspecified) | inactive: -33%
36 | O=C(CCc1nc(-c2cccs2)no1)Nc1ccc([N+](=O)[O-])cc1 | inactive: -15%
37 | CCc1cccc(C)c1NC(=O)Cn1ncc2c3ccccc3n(Cc3ccccc3)c2c1=O | inactive: -3.3%
38 | Cc1ccc(Cl)cc1Nc1nn2c(=O)c3ccc(C(=O)NC4CCCCC4)cc3nc2s1 | inactive: -4.96%
39 | COc1ccc(OC)c(NC(=O)CS(=O)(=O)Cc2nc(-c3ccc(C)cc3)oc2C)c1 | inactive: -6.58%
40 | CCCSc1ncnc2c1c(-c1ccccc1)cn2-c1ccccc1OC | inactive: -15.4%
41 | CCOc1ccc2c(c1)c(=O)c(S(=O)(=O)c1ccc(CC)cc1)cn2Cc1cccc(Cl)c1 | inactive: 0%
42 | CN1CCN2c3ccccc3Cc3ccccc3C2C1 (stereo unspecified) | inactive
43 | COc1ccc(CNC(=O)c2ccc(CS(=O)(=O)c3ccc(Br)cc3)o2)cc1 | inactive: -24.1%
44 | CCCCOC(=O)c1ccc(Nc2nc3ccc(C(=O)c4ccccc4)cc3n3cnnc23)cc1 | inactive: 4.19%
45 | CCOc1ccc(OCC)c(NC(=O)c2cc(-c3cccs3)nc3ccccc23)c1 | inactive: 0.4%
46 | O=c1c2sccc2n(Cc2cc(=O)n3cc(Cl)ccc3n2)c(=O)n1-c1ccccc1 | inactive: -15.4%
47 | O=c1c(N2CCN(c3cccc(Cl)c3)CC2)csc2ccc(Cl)cc12 | inactive: 2.42%
48 | CCCCCCCCOc1ccccc1C(=O)Nc1ccc(C(=O)OCC[N+](C)(CC)CC)cc1 | inactive

Row | SMILES | activity change, positive = activation
49 | COCCCNC(=O)C1CCN(c2nc3ccc(Cl)cc3[nH]2)CC1 | inactive: 5.5%
50 | CC1=C(c2ccc(C(C)C)cc2)S(=O)(=O)NC1=NCc1ccc(Cl)cc1 | inactive: -9.78%
51 | Cc1ccc(CNC(=O)CCCc2nnc3n(CC(C)C)c(=O)c4sccc4n23)cc1 | inactive: -5.72%
52 | CCOC(=O)c1ccccc1NC(=O)c1nn(-c2ccc(OC)c(Cl)c2)c(=O)c2c1c1ccccc1n2C | inactive: -3.59%
53 | CCc1ccc2occ(CC(=O)Nc3ccc(C)c(C)c3)c2c1 | inactive: -36.3%
54 | Cc1sc2ncn(CC(=O)N3CCN(c4ccccc4)CC3)c(=O)c2c1S(=O)(=O)N1CCC(C)CC1 | inactive: -16.6%
55 | O=c1c2nncn2ccn1-c1ccc(F)c(F)c1 | inactive: -7.48%
56 | O=C(c1cc2cc3ccc(Cl)cc3nc2o1)N1CCN(c2cccc(Cl)c2)CC1 | inactive: -0.301%
57 | O=C(CN1C(=O)CSc2ccc(S(=O)(=O)N3CCCC3)cc21)NCc1ccc(F)cc1Cl | inactive: -21.6%
58 | Cc1cccc(NC(=O)N2CC=C(c3c[nH]c4ccccc34)CC2)c1C | inactive: -11.7%
59 | CCN(CC)C(=O)C1CCCN(c2ncnc3c2c(-c2ccccc2)cn3-c2cccc(C)c2)C1 (stereo unspecified) | inactive: -33.4%
60 | Cc1nc(-c2ccc(C)c(S(=O)(=O)N3CCC(C(=O)NCc4ccc(F)cc4)CC3)c2)no1 | inactive: -38.3%
61 | CCCCc1ncc(/C=C(\Cc2cccs2)C(=O)O)n1Cc1ccc(C(=O)O)cc1 | inactive: -1.24%
62 | O=S(=O)(c1ccc2nc(Nc3ccc(F)cc3)ccc2c1)N1CCCC1 | inactive: -5.65%
63 | Cc1ccc(C)c(CNC(=O)CN2C(=O)CSc3ccc(S(=O)(=O)N(C)C)cc32)c1 | inactive: 0.365%
64 | O=C1NC2CCCCN2C12CCN(CCCN1c3ccccc3CCc3ccc(Cl)cc31)CC2 (stereo unspecified) | inactive: -21.7%
65 | COc1ccc(S(=O)(=O)N(CCc2ccccc2)CC(=O)Nc2cc(C)cc(C)c2)cc1OC | inactive: -22.2%
66 | COc1ccccc1N1CCN(S(=O)(=O)CCNC(=O)C(c2ccccc2)c2ccccc2)CC1 | inactive: -34.3%
67 | N[C@@H](Cc1ccc(O)c(O)c1)C(=O)O | inactive: -1.6%
68 | CCc1ccc(NC(=O)Cn2c(=O)n(CCc3ccccc3)c(=O)c3sc4ccccc4c32)cc1 | inactive: -7.11%
69 | CC(=O)c1cccc(N2C(=O)CN(S(C)(=O)=O)CC2(C)C(=O)NC2CCCC2)c1 (stereo unspecified) | inactive: 0.13%
70 | CCOC(=O)c1[nH]c(C)c(CCC(=O)Nc2cc(Cl)c(OC)cc2OC)c1C | inactive: -27.3%
71 | CCC(C)NC(=O)c1cn(CC)c2ccc(S(=O)(=O)N3CCc4ccccc4C3)cc2c1=O (stereo unspecified) | inactive: -30.3%
72 | Cc1ccc(CCNC(=O)c2ccc3c(c2)N(Cc2ccc(F)cc2)CCS3)cc1 | inactive: -6.36%

Row | SMILES | activity change, positive = activation
73 | Cc1cc(C)c(NC(=O)Cn2c(=O)n(CC(=O)NCCc3ccccc3)c(=O)c3ccccc32)c(C)c1 | inactive: -5.19%
74 | O=C(NC1CCCCCC1)c1ccc(CS(=O)c2cccc(Cl)c2)o1 (stereo unspecified) | inactive: -16.4%
75 | O=C(CSc1nc2ccccc2n1Cc1cccc(F)c1)N1CCN(c2ccc(F)cc2)CC1 | inactive: -30.8%
76 | O=C(NCc1ccccc1Cl)c1ccc2c(c1)N(Cc1ccccc1)CCS2 | inactive: -13.7%
77 | COc1ccc(NC(=O)c2cc3c(=O)n(Cc4cccnc4)ccc3nc2C)c(OC)c1 | inactive: -5.8%
78 | CN(C)CCc1c[nH]c2ccc(CS(=O)(=O)N3CCCC3)cc12 | inactive
79 | Cc1ccc2nc3c(cc(C(=O)NCc4ccco4)c(=N)n3C(C)C)c(=O)n2c1 | inactive: 7.28%
80 | Cc1ccc(NC(=O)c2c(C)oc3ncn(CC(C)C)c(=O)c23)nc1 | inactive: -18.8%
81 | O=C(Nc1ccc(N2CCOCC2)c(C(=O)O)c1)c1ccc(Br)cc1 | inactive: 17.8%
82 | CCc1ccc(OCc2ccccc2C(=O)Nc2ccc3nc(C)cc(N)c3c2)cc1 | inactive: -66.1%
83 | Cc1ccc(CNC(=O)Cn2ccn(-c3ccc(F)cc3)c(=O)c2=O)cc1 | inactive: -6.56%
84 | Cc1cccc(CN2C(=O)c3ccccc3S(=O)(=O)c3ccc(C(=O)NC4CCCCC4)cc32)c1 | inactive: -13%
85 | CCn1c(=O)c2cc(C(=O)NCCc3ccc(Cl)cc3)sc2c2ccccc21 | inactive: -9.16%
86 | Cc1ccc(N(C)C(=O)C2CCN(S(=O)(=O)c3cn(C)cn3)CC2)cc1 | inactive: -4.59%
87 | CCn1c(=O)c2sccc2n2c(CCC(=O)Nc3ccc(C(C)C)cc3)nnc12 | inactive: -12%
88 | COc1ccc(OCC(=O)NC(Cc2c[nH]c3ccccc23)C(=O)O)cc1 (stereo unspecified) | inactive: 3.03%
89 | CC1(COc2ccc(CC3SC(=O)NC3=O)cc2)CCCCC1 (stereo unspecified) | inactive: 14.1%
90 | CCc1nnc(SC(CC)C(=O)Nc2cc(C)ccc2C)c2cc3occc3n12 (stereo unspecified) | inactive: -11.3%
91 | COc1cc(C2c3c(oc4ccccc4c3=O)C(=O)N2Cc2ccc(C)cc2)ccc1O (stereo unspecified) | inactive: 18%
92 | CC1CCN(CCCNC(=O)CN2C(=O)CSc3ccc(S(=O)(=O)N4CCOCC4)cc32)CC1 | inactive: -6.23%
93 | Cc1ccc(CNC(=O)CCc2nc3cccnc3n2Cc2ccccc2)cc1 | inactive: 8.9%
94 | CC(=O)Nc1ccc(NC(=O)C(NS(=O)(=O)c2ccc(Br)s2)c2ccccc2)cc1 (stereo unspecified) | inactive: -19.6%
95 | COc1cc(NC(=O)Cn2nnnc2-c2ccccc2F)cc(OC)c1OC | inactive: -4.11%
96 | Cc1ccc(Cn2cc(S(=O)(=O)c3ccc(Cl)cc3)c(=O)c3cc4c(cc32)OCO4)cc1 | inactive: 3.97%
